Laboratory results published in article PMC10726135.
The other results are listed elsewhere or left out. At the low end of the ranking the order means little. The protein was read in a cell extract, so binding may be indirect.

These sequences were tested against T1, HNF4alpha8 (COS-7 nuclear extract) (UniProt P41235-5) (assay: protein-binding microarray). Details: COS-7 nuclear extract on double-stranded Agilent 4x180k PBM; binding buffer, salt, pH and temperature not given; high values mean tight binding; double strand, one strand shown; sequences stand for … in …GCCTAGGGAGATTAGAGTATCGGTCGA.
T1 sequence: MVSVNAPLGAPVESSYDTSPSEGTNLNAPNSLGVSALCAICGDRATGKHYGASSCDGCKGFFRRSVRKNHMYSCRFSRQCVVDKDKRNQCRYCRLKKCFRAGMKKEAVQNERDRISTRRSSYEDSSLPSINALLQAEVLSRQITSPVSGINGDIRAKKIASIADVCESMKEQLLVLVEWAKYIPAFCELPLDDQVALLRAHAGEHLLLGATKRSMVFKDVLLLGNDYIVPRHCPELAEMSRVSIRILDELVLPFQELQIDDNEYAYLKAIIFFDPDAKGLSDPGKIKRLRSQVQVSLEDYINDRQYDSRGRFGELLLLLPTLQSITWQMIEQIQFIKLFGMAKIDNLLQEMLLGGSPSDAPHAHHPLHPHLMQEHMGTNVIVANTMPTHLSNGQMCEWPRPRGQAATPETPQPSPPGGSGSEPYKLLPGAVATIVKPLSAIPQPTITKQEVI

Row | Sequence | binding signal (log2 normalized intensity)
1 | GGCAGGTCTCTCTCATTCACACCCTCAGCT | -1.36
2 | GAGGGAGCCGCTGTGTGGGAAGAGGGCCTA | -1.41
3 | AGTGGAGAAATAACATTAATGGAAATGCCT | -1.3
4 | TAAAACATCTTTGAAGAGCACAGGGTCAGC | 2.05
5 | TTCGAATATTTGTGATTTGAAATTTGTCCT | 2.76
6 | TGTGATCTTGGGTAAGCCACTGAACTTTCA | 3.1
7 | AAGGGTTCATCTGACTGGAAGAGCCTGCAA | -1.25
8 | GTGGGTAATTAACTCCCCCTGCCCCCAGGT | 5.38
9 | ATGAGATAAGGTTCTGATAAAGTATCTTCA | -1.29
10 | CCATCAGTGGACTTTGACCTTGTTTTCAAT | 9.54
11 | GCCGGGAAAACCCGGAGCGGAGCATCCCTC | -1.35
12 | TGCTCCCAAAGCAAACCTCCCCAGCCCAGG | 3.01
13 | CAGGACCTGCCATTTTTTCAAACACCTGGG | -1.3
14 | AATTTCAAATTTGCACCTGCCTTTAGGCAT | -1.35
15 | AGCTTAGGGTTCAAACTCCAGCTCTGATAC | 3.47
16 | TTGCTTGTGAATGAAAGAGACTAGTATGTA | 0.132
17 | GGCGCGCCTGCCCTTCGCTCCCCGACCTCC | 4.2
18 | CAGCAGACTCAGAAAAATATGTGGACTTCA | 2.99
19 | TAAAGTTCATTGCTTTGAGCATGAGAGTTC | 0.887
20 | GTGGAGCAGCTTTCTCTGCACACACTCACA | -1.34
21 | CTGAGCTAAGATAACCATCAAATCCTCGGA | -1.32
22 | ATATAAAAACTAACCATACTGAGTGTTGGT | -0.252
23 | TGTGTGTGTGTGTGTGTGTGTGTGTATGCC | 3.1
24 | AACGAGACCTTAGCCCTGAACAAACAGCTT | -1.42
25 | CTGAATCAAGGTTTCTTTCCCTGGGGTCAA | 4.4

Row | Sequence | binding signal (log2 normalized intensity)
26 | GAGCCAAGGGAGCACAACCCGGGCGCACAA | -1.29
27 | TTGCAACCTTTGCCCTGTTGTCTTTGCCCA | 4.71
28 | TGATCCCTGACTCATAGCTCCAGAGCCACC | -1.48
29 | ACTACTTATCTCCAAGACCCTTCATAGCTT | -1.07
30 | CCTTGCTGATAAAACAGCATGCGGTAAAGA | -1.27
31 | TTGATAAACAGATAACTGGGGGCAAAGGTT | 7.27
32 | CAGCTAAAGCCTGCTCGTTGGGGGTCACCC | 4.15
33 | CTCGCCTGGCTCCCCACGTGGCAATCATTC | -1.27
34 | AACTTTCAAGATGAAGCAAGAGTCCAAATT | 3.41
35 | CTGTTTCCTACTGACCTCCGACCCCACGGA | 5.54
36 | CAAGATAACAAGGCAAACTTTATCAAGACT | -1.45
37 | GGCCTCTCTGCAAATTTGCCTTGTCCTTAG | 1.36
38 | GTCCAGGGCCCTTACCATCAATCACATTGT | -1.24
39 | GCAAAGGTCACAAGAGGTGCTGTGTGCCTG | 1.71
40 | TCACACAATCAGTGTGTTGACATTTGAACC | 4.54
41 | AGGTTCAGTGAAGTAGTGTGTATGAAAGGC | 0.793
42 | TCTCCAAGGTTATTATATTGTGGGTTCTTG | 1.82
43 | CTCCTATCCTCTGATCCCCAGGTCATAAGA | 2.05
44 | CTGACCCTAGATGAGATAAGGTTCTGATAA | -1.23
45 | GTGATAAAACCCATGGACCTGACACCCGCT | -1.28
46 | TCTTGGGTAAGCCACTGAACTTTCACTGCC | 1.72
47 | CCAAAGTCCGCCACTAGCAACAGCTGCAGT | -1.39
48 | AGTGCAATGCCTAAACCAGGATCCAGTCCT | -1.42
49 | CCACACTCTCCCCACCCCCAAATCCCCTTC | 5.86
50 | TCCCCGTCACCCTCCCCGCCACCCCCCAGA | 7.31

Row | Sequence | binding signal (log2 normalized intensity)
51 | AAGCAGCGATGGAAGGGATGGGGTGCAAAC | -1.27
52 | ACCTGAGTGCCAGAGCTGTGAAGACTGCAG | -1.37
53 | GGAGGCAGGGAGACAACCTGGGTGTAGGTG | -1.38
54 | CAAGCTTGATCCAGGATCCTTCTTGACCAG | 1.18
55 | ACCCGGCGCGGACATAAAATTAAAGCGGAC | -1.16
56 | CCATCATGTGTACAGAGCTGAAGTTTGCAA | 0.684
57 | CGGGGAACCCAGCAAACCTGTCTCTCTGCA | -1.26
58 | TCTGTCCTTTGTGTTTATGGCAAATTGATA | 2.04
59 | GAACTGAGTTACTTGTGCTAAGTGCCATGT | 0.786
60 | TAGCAAAGAAACTCGTGGCATTTTTGCCCC | 2.94
61 | TGTAATACACAAGCAATAGGGTTCGGTGCA | 0.3
62 | CATTCAGCAACTGGGTTCAGTTACGGGGTG | 1.38
63 | TACTTTTCAAATGTAAGAATTTAAACCAAA | -0.968
64 | GTACGGAGGACAGCCACCCGTGCTTGGAAT | -1.35
65 | GCTCAGCTGGTTGCCCCTTTGACCCTCGGG | 7.06
66 | CTCCCTCCCCACCCGGTGTGCGTGGGTGGG | 2.03
67 | TATGGCAACCTTTGTCCTGCTGAGGAGGCA | 2.92
68 | TTCAAAAGAGAGAGTAGCTCCAAAAGGTGG | -1.33
69 | ATCCTGTCTCCTTTAACCTTCATTCATATC | 1.47
70 | TTAGCTTCCTCCCTTGGAATGTGACCTTAG | 5.27
71 | TCCCCACCATTAACCCTACAGTCCTGCCAC | 2.5
72 | GGAATGACCTTTGATATTTGTGCCTAGTGG | 5.39
73 | AGGCATCTCTGGGGGTCAGAAGTCCAACAT | 5.91
74 | ATCGGAGAACGTTCCAAACCTACACAGACC | -1.45
75 | AGAAATAGCCTGAAAATGTTTGCCGACCTC | 1.8

Row | Sequence | binding signal (log2 normalized intensity)
76 | TTGACCACAGTTATCTCCCCAGCTTACAAT | 2.16
77 | TGATCTTAAGATGATATAGCTGTTCATTAG | 1.35
78 | CTTTGTATAAGCCGTGCAAAGTTCATCCCT | 4.01
79 | ATTTCACAAATGAGGGGACAAAGTTCGTGG | 4.29
80 | CTGGCAAATGTGAATGGACTCTGCCCTTAG | 6.96
81 | AAGGCCCAGCTAGAAGCAGTGGGACAAAGG | 1.46
82 | ATCGCACGAGCAAGTTTATTCCAAGACTCG | -1.26
83 | TGGAGGCCAAAAGTAGGGAGGAGGGGAGGG | -1.29
84 | GCTCCGCCGGACCGGCCAAACTGGTTTCTC | -1.27
85 | ACCAAACAAAATTAATGTGCCTGCCACATC | -1.39
86 | ACCAGATAAGGCAGTGGTTTGCAGTTGGAA | 0.598
87 | GTAACCTTTGGCCAATTGCATTTTTGTTCC | 3.19
88 | CCAGATGAGATAGGAGGTCAGCACAAGATA | -1.35
89 | GAGAGTTTTCCTTGGCTGTGCTGCCCTTTG | 4.01
90 | TGGGCTCTGACCCGAAGGGTAGGAGAAGCT | -1.34
91 | TCGTGGCCCCTGGGTCGTTGGTGCTCCCCC | 4.53
92 | ATTTGACAATTTACAGTGTTCAAAGGTAGC | 2.48
93 | TTTCATTGAACTGCTGGGGGTAAAGTGGAT | 1.5
94 | CTGACCTCCGACCCCACGGACTTAAATTGT | 3.37
95 | CTTTGAAAAAACCTGTTCAGCCAGATTCTC | -1.25
96 | CTGAGGAAAAAAGTTTGAAAATGCCTTGAA | -0.805
97 | ACCTGTACAGGGACTGTGTCAACAAGGTAT | 0.448
98 | CAACCCATCCAACTCCTTGAGAAGTACAAC | -0.809
99 | CATAGTAACAACCTAAATCAGAGCACCATT | -1.42
100 | AGCATTTTTGTATGCATAAGGCCTTGGACC | 3.27

Row | Sequence | binding signal (log2 normalized intensity)
101 | AATGAAACATTGTGACTTCCTCATGATCGC | 1.05
102 | CTGCACCTTGACCTCCTGGGCCCAAGTGCT | 3.42
103 | ACGGACTTAAATTGTGCTGTGTCAGAGTTG | 1.66
104 | CCAAGAGCGGAAAGAAAGGCCTTTCATACG | -1.31
105 | GCGGCGGAACGCGCGGGCAGGTTGCCCTTT | 5.31
106 | TTACTTATGTTGTCCGGACACCAACCTTTG | 3.03
107 | TCTATCTCCCTACCCTCACCCCTGCTGGGG | 1.87
108 | TTCCTGTTAGATAGAGGAGTCAAGCAAACA | -0.972
109 | AACCCCTAGGTCAGCAGTTGTTCAAAGTCC | 5.35
110 | ACACAGTTGCCTATGCCCTTTGAAATTCTG | 2.26
111 | AAAAGCCTTTTGAAGAAACCAACCCTGCCA | -1.37
112 | TTGGATTTTAAAAGCCCTCAAATACTCTGA | -1.38
113 | CGGTGAGGGATTGTTTAGGTACAAAGTCCA | 8.89
114 | ACTGTATCTTATCAGAAACACACCCTTGGG | -1.33
115 | AGTGCATAGCTAAGCACCCAGATAAGTTAT | -1.23
116 | TCTGCTCTTGAACCAGAGAATCTCTCATTT | -1.05
117 | TCAAGACAGGTGAGAGAGCTGCATTGCTTC | -1.12
118 | TTCACCGGAGATTTACATTCCAGAGTAAAC | -1.32
119 | TATCTTCGTATAGAAACAAGACAGAATGAT | -0.509
120 | AGGCCATCCACATTCTTTGGCTCAGGGCCT | -1.31
121 | GGCCACTCCGTTTGCTATGGCCTTTCTTCA | 0.898
122 | CCTGGCCGAGGTTGCCCAGCTATTAAATGG | -1.01
123 | ACTGAATATGTTCGGGAGACATGTGGCCTT | 2.13
124 | TTGCCTGATAGCATCGTGGGTATTTGGGGA | 1.17
125 | GATAAGTCCCTAAGAGGAATAGTCAGATTG | -1.45

Row | Sequence | binding signal (log2 normalized intensity)
126 | TTACTGGACTTGATCCATTCTACCCCTGTG | 2.82
127 | GCAGGGCTTTTCCATTGACAGTCCAAGGAC | -1.35
128 | CAGCCCAGCATACCATTCCCACCCCATTTC | 3.23
129 | TAGCTCACAGGAAAGGAGACTAAAGGTCAA | 5.26
130 | TGGACTTTGTGGGCCAAAAGCAGCCATTAA | 1.48
131 | TTTCAAGCAATGTTTGCCTCTCAGCTCATT | -1.39
132 | AATGATCAAAGAGACACAATCCCTAAGGCC | -1.33
133 | AAGAGCAAAGGACCAAAAGATATTTGCTGC | -1.42
134 | ATCTTTGACCTCTCCAGGGTCCTTGCCTTA | 2.25
135 | TCTTGGCTGCTTTAGACATGAGATAGCATT | 0.744
136 | TCAGAGGCTAAACCTAGCCCCCTTTCCCTT | 3.5
137 | ACTTCTGTCTCCAGAAATCAACCTTTGATC | 8.8
138 | TCTACTTGTTAGTAATCGATGTCCATGAAG | 1.54
139 | AGCAAAGGTCATCCTGGGCTACCGATATGA | 1.58
140 | TGTGTTTCCCTCCCTGGTATGTACTTTCTT | 2.52
141 | TTCACCTTTCGCCCTTTGTCCTATGACTCT | 5.44
142 | GTACAAAGTACAGAGATGGCACAGAGGAGG | -1.38
143 | GCATTTAGAAATAGTTGACTTTTCTAACAA | -1.27
144 | AAATCTTCCCTCCTGTGAACTCGCGCCCCA | 1.91
145 | GACCTTTGACTGCAGAAGATAAGAATCTCT | 3.73
